Measured values reported in publication PMC4336329 (PLoS ONE, 2015).
In all, about 310,000 compounds went through this assay and about 2,200 (0.71%) showed an effect of 50% or more. Effects have a minus sign here. This is one part of the list.

molecular target: human ether-à-go-go-related gene (hERG) potassium channel (human, UniProt Q12809); assay: primary screen, population patch clamp on CHO cells stably expressing hERG
Sequence (Q12809 whole entry, looked up): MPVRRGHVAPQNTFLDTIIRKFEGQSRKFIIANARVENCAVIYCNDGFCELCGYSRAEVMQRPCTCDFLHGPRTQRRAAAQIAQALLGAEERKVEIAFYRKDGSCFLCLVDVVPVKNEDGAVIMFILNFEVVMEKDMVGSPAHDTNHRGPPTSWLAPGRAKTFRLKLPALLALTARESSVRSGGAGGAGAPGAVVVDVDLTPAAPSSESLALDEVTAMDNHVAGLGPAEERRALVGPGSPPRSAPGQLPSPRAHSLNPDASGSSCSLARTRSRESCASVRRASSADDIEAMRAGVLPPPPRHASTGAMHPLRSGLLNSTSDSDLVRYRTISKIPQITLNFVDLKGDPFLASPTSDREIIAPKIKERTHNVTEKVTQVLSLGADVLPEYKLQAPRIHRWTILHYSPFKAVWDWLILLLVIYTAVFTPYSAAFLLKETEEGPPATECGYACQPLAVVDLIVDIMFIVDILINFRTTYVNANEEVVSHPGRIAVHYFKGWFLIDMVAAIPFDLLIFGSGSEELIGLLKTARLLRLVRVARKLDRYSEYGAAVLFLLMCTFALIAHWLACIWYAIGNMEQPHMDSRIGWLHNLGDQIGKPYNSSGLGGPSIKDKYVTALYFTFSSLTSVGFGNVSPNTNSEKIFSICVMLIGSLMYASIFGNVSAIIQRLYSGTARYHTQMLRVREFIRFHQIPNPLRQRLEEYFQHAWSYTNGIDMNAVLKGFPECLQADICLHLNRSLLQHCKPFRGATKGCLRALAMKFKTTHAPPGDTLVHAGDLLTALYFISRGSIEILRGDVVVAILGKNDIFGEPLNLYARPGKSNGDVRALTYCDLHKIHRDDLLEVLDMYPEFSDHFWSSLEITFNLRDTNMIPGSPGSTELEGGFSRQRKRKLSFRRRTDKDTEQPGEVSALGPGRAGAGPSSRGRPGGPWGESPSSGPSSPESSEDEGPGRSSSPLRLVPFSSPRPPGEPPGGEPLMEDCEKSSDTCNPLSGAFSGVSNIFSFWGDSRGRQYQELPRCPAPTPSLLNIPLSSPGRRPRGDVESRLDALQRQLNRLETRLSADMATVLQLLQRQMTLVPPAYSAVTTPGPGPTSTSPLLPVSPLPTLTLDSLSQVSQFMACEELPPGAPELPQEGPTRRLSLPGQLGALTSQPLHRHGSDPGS

Question: For `CN(C)S(=O)(=O)c1ccc(Cl)c(C(=O)NC2=NCCS2)c1`, which “hERG current change (%, negative = inhibition) at 1uM” value is on record?
Answer: Its value is 14%.

Question: Which “hERG current change (%, negative = inhibition) at 1uM” value does the source give for `Cc1ccc(S(=O)(=O)NC23CC4CC(CC(C4)C2)C3)cc1` here?
Answer: The value was 1.31%.

Question: With `CCC(=O)N1CCc2cc(S(=O)(=O)CCC(=O)N3CCN(c4ccc(C(C)=O)cc4)CC3)ccc21` as the molecule, how does the “hERG current change (%, negative = inhibition) at 1uM” value read?
Answer: The value was 16%.

Question: For `FC(F)(F)c1cnc(Oc2cccc3ccccc23)c(Cl)c1`, which “hERG current change (%, negative = inhibition) at 1uM” value is on record?
Answer: Its value is 6.39%.

Question: With `CSCC[C@H](NC(=O)C(C)(C)Oc1ccc(Cl)cc1)c1nc2ccccc2[nH]1` as the molecule, how does the “hERG current change (%, negative = inhibition) at 1uM” value read?
Answer: Its value is 11.4%.

Question: `Cc1ccc(CCNC(=O)CCNS(=O)(=O)c2ccc3c(c2)oc(=O)n3C)cc1` was tested. Which “hERG current change (%, negative = inhibition) at 1uM” value did it give?
Answer: Its value is -2.63%.

Question: Which “hERG current change (%, negative = inhibition) at 1uM” value does the source give for `CC(Oc1ccccc1)C(=O)Nc1ccc(S(=O)(=O)N2CCCC2)cc1` (centres unmarked) here?
Answer: Its value is 16.8%.

Question: With `Cc1cc(NC(=O)CSc2[nH]c(=O)cc(C(F)(F)F)c2C#N)no1` as the molecule, how does the “hERG current change (%, negative = inhibition) at 1uM” value read?
Answer: The value was 5.76%.

Question: `CSc1ccc(/C=N/N2CCN(Cc3ccccc3)CC2)cc1` was tested. Which “hERG current change (%, negative = inhibition) at 1uM” value did it give?
Answer: The value was 18.7%.

Question: Which “hERG current change (%, negative = inhibition) at 1uM” value does the source give for `COc1ccc(N2CCN(C(=O)Cn3c(=O)[nH]c4ccccc4c3=O)CC2)cc1` here?
Answer: The value was 6.77%.

Question: Which “hERG current change (%, negative = inhibition) at 1uM” value does the source give for `CCCc1nc(NCc2ccc3c(c2)OCO3)c2nnn(Cc3ccccc3Cl)c2n1` here?
Answer: Its value is 10.1%.

Question: How did the “hERG current change (%, negative = inhibition) at 1uM” value turn out when `CCN(CC)CCNC(=O)c1cc(Sc2nnc(C)s2)nc2ccccc12` was run?
Answer: The value was -4.56%.

Question: With `Cc1cc(C(C)(C)C)cc(C)c1COC(=O)C1CCC(=O)N1` (centres unmarked) as the molecule, how does the “hERG current change (%, negative = inhibition) at 1uM” value read?
Answer: The value was 6.28%.

Question: How did the “hERG current change (%, negative = inhibition) at 1uM” value turn out when `COc1ccc(CCNC(=O)c2cc(=O)[nH]c3ccccc23)cc1` was run?
Answer: The value was 16.2%.

Question: How did the “hERG current change (%, negative = inhibition) at 1uM” value turn out when `O=C(O)c1ccccc1C(=O)N1CCN(c2cccc(Cl)c2)CC1` was run?
Answer: Its value is 12.5%.

Question: For `O=c1[nH]c2sc3c(c2c(=O)n1Cc1ccccc1)CCC3`, which “hERG current change (%, negative = inhibition) at 1uM” value is on record?
Answer: Its value is -8.86%.

Question: Which “hERG current change (%, negative = inhibition) at 1uM” value does the source give for `COC(=O)c1cc2c(=O)c3ccccc3oc2nc1C` here?
Answer: Its value is 14.9%.

Question: For `COc1ccc(/C(N)=N/OC(=O)Cc2ccc(C)cc2)cc1`, which “hERG current change (%, negative = inhibition) at 1uM” value is on record?
Answer: Its value is 9.75%.

Question: Which “hERG current change (%, negative = inhibition) at 1uM” value does the source give for `CC(C)(C)c1ccc(C(=O)N2CCN(C(=O)c3ccco3)CC2)cc1` here?
Answer: Its value is 9.19%.

Question: For `Cc1ccc(S(=O)(=O)/N=C(/Nc2c(C)n(C)n(-c3ccccc3)c2=O)c2ccc(Cl)cc2)cc1`, which “hERG current change (%, negative = inhibition) at 1uM” value is on record?
Answer: Its value is -13%.

Question: For `COc1cccc(C(=O)Nc2nc(-c3ccc4c(c3)OCO4)cs2)c1`, which “hERG current change (%, negative = inhibition) at 1uM” value is on record?
Answer: The value was 4.4%.

Question: How did the “hERG current change (%, negative = inhibition) at 1uM” value turn out when `COc1ccc(C(=O)N(C)Cc2ccon2)cc1OC1CCN(C(C)C)CC1` was run?
Answer: Its value is 14.7%.

Question: For `CCCN1C(=O)C(O)(c2c(C)[nH]c3ccccc23)c2ccccc21` (centres unmarked), which “hERG current change (%, negative = inhibition) at 1uM” value is on record?
Answer: Its value is 12.6%.

Question: With `Clc1ccc(CSc2nnc(-c3ccncc3)s2)cc1` as the molecule, how does the “hERG current change (%, negative = inhibition) at 1uM” value read?
Answer: Its value is 11.7%.

Question: `CCCSc1nc2sc3c(c2c(=O)n1CC)CC(C)(C)OC3` was tested. Which “hERG current change (%, negative = inhibition) at 1uM” value did it give?
Answer: The value was 7.58%.

Question: Which “hERG current change (%, negative = inhibition) at 1uM” value does the source give for `COC(=O)c1nnn(-c2nonc2N)c1CSc1nc2ccccc2o1` here?
Answer: The value was 13.8%.

Question: With `Cc1ccc(S(=O)(=O)c2cc3c(=O)n4ccccc4nc3n(CC3CCCO3)c2=N)cc1C` (centres unmarked) as the molecule, how does the “hERG current change (%, negative = inhibition) at 1uM” value read?
Answer: The value was 9.33%.

Question: `CCN(Cc1ccncc1)C(=O)c1ccco1` was tested. Which “hERG current change (%, negative = inhibition) at 1uM” value did it give?
Answer: Its value is 17.7%.

Question: With `O=C(CCN1C(=O)C2CC=C(Cl)CC2C1=O)N1CCCCC1` (centres unmarked) as the molecule, how does the “hERG current change (%, negative = inhibition) at 1uM” value read?
Answer: Its value is 12.1%.

Question: For `O=C(O)c1sccc1Oc1ccc(NS(=O)(=O)c2ccc(Cl)cc2)cc1`, which “hERG current change (%, negative = inhibition) at 1uM” value is on record?
Answer: The value was 13.1%.

Question: How did the “hERG current change (%, negative = inhibition) at 1uM” value turn out when `COc1ccc(Cl)cc1NCCC(O)c1ccc(F)cc1` (centres unmarked) was run?
Answer: The value was 5.17%.

Question: `O=C(O)c1ccc(NC(=O)c2ccccc2NC(=O)c2cccc(Br)c2)cc1` was tested. Which “hERG current change (%, negative = inhibition) at 1uM” value did it give?
Answer: The value was 8.54%.

Question: How did the “hERG current change (%, negative = inhibition) at 1uM” value turn out when `CC(C)(C)NC(=O)C1CCN(S(=O)(=O)c2cccc(C(F)(F)F)c2)CC1` was run?
Answer: The value was -4.68%.

Question: How did the “hERG current change (%, negative = inhibition) at 1uM” value turn out when `Cc1ccc(CNC(=O)N[C@@H](Cc2ccccc2)C(=O)O)cc1` was run?
Answer: The value was 8.8%.

Question: For `Cc1ccccc1C(=NCCCN(C)C)c1ccccc1C.Cl`, which “hERG current change (%, negative = inhibition) at 1uM” value is on record?
Answer: Its value is 9.99%.

Question: With `CN1CCc2c(sc3c2C(=O)NC(/C=C/c2ccco2)N3)C1` (centres unmarked) as the molecule, how does the “hERG current change (%, negative = inhibition) at 1uM” value read?
Answer: The value was -3.03%.

Question: Which “hERG current change (%, negative = inhibition) at 1uM” value does the source give for `CCc1cc(SC#N)cc(C)c1NC(=O)CCl` here?
Answer: Its value is 19.8%.

Question: How did the “hERG current change (%, negative = inhibition) at 1uM” value turn out when `CCCCNc1nc(=S)[nH]c2cc(OC)c(OC)cc12` was run?
Answer: Its value is -20.7%.

Question: For `CCN(CC)CCCNC(=O)c1cn(CC)c2ccc(S(=O)(=O)N(C)C3CCCCC3)cc2c1=O`, which “hERG current change (%, negative = inhibition) at 1uM” value is on record?
Answer: The value was -5.96%.

Question: Which “hERG current change (%, negative = inhibition) at 1uM” value does the source give for `CC(=O)c1ccc(-n2c(-c3cc(-c4ccsc4)n[nH]3)n[nH]c2=S)cc1` here?
Answer: The value was 7.9%.

Question: `Cc1ccc(S(=O)(=O)NCCc2nnc(SCc3cccnc3)n2C)cc1` was tested. Which “hERG current change (%, negative = inhibition) at 1uM” value did it give?
Answer: Its value is 10.9%.

Question: With `Cc1cc(OCCn2ccnc2)ccc1C(C)C` as the molecule, how does the “hERG current change (%, negative = inhibition) at 1uM” value read?
Answer: Its value is 3.14%.

Question: How did the “hERG current change (%, negative = inhibition) at 1uM” value turn out when `Cc1sc2c(c1C)c(=O)n(-c1ccc(Cl)cc1)c(=O)n2Cc1cc(=O)n2ccccc2n1` was run?
Answer: Its value is -3.51%.

Question: How did the “hERG current change (%, negative = inhibition) at 1uM” value turn out when `CC1CCN(c2c(NCC3CCC(C(=O)NCCC4=CCCCC4)CC3)c(=O)c2=O)CC1` (centres unmarked) was run?
Answer: The value was 6.05%.

Question: `COc1ccccc1CCNCc1ccc(OC)c(OCc2ccccc2)c1` was tested. Which “hERG current change (%, negative = inhibition) at 1uM” value did it give?
Answer: The value was -29.4%.

Question: How did the “hERG current change (%, negative = inhibition) at 1uM” value turn out when `Cc1ccc2cc(CN(CCCO)S(=O)(=O)c3ccccc3F)c(=O)[nH]c2c1C` was run?
Answer: The value was 8.49%.

Question: Which “hERG current change (%, negative = inhibition) at 1uM” value does the source give for `N#CCCN(C(=O)Nc1ccc(Cl)cc1)c1ccccc1` here?
Answer: The value was 5.65%.

Question: Which “hERG current change (%, negative = inhibition) at 1uM” value does the source give for `CC(OC(=O)CSc1ccc(F)cc1)C(=O)NC1(C#N)CCCCC1` (centres unmarked) here?
Answer: Its value is 11.1%.

Question: For `CCN1CCN(c2ncc(C(=O)Nc3ccccc3C(=O)OC)c3ccccc23)CC1`, which “hERG current change (%, negative = inhibition) at 1uM” value is on record?
Answer: Its value is -1.67%.

Question: For `COC(=O)c1c(C)[nH]c(C(=O)C(C)OC(=O)c2c(C)noc2C)c1C` (centres unmarked), which “hERG current change (%, negative = inhibition) at 1uM” value is on record?
Answer: Its value is 7.04%.

Question: With `CC1Cc2ccccc2N1C(=O)CCS(=O)(=O)c1cccs1` (centres unmarked) as the molecule, how does the “hERG current change (%, negative = inhibition) at 1uM” value read?
Answer: The value was 8.12%.

Question: With `C(=N\c1nc2ccccc2n1CCN1CCCCC1)/c1ccc2c(c1)OCO2` as the molecule, how does the “hERG current change (%, negative = inhibition) at 1uM” value read?
Answer: The value was -12.2%.

Question: How did the “hERG current change (%, negative = inhibition) at 1uM” value turn out when `COc1cccc(C2=NOC(C(=O)Nc3ccc4c(c3)OCO4)C2)c1` (centres unmarked) was run?
Answer: Its value is 12.7%.

Question: `Cc1ccc(C(=O)N2CCN(c3cnn(C)c(=O)c3Cl)CC2)cc1` was tested. Which “hERG current change (%, negative = inhibition) at 1uM” value did it give?
Answer: Its value is -3.67%.

Question: Which “hERG current change (%, negative = inhibition) at 1uM” value does the source give for `CN1C(=O)C(=Cc2ccc(Sc3ccccc3)o2)C(=O)N(C)C1=O` here?
Answer: Its value is 11.9%.

Question: `COC(=O)C1=C(c2ccc(OC(F)(F)F)cc2)C[C@@H]2CC[C@H]1N2C(=O)NC(C)C` was tested. Which “hERG current change (%, negative = inhibition) at 1uM” value did it give?
Answer: The value was -3.51%.
